In all, about 420,000 compounds went through this assay and about 50,000 (12%) were called active. Inconclusive results, whose numbers are uncertain, are shown with a selection of clear calls. Calls come from the whole dose curve; as a rule, active = well fitted inhibition curve with a large enough effect; inconclusive = small, poorly fitted or top-dose-only effect; inactive = flat fitted curve, though single readings scatter. Potencies of inconclusive entries are left out as doubtful fits.
Experiment: qHTS for Inhibitors of human tyrosyl-DNA phosphodiesterase 1 (TDP1): qHTS in cells in presence of CPT; note: nearly all actives have a fitted effect of over 55% in size
Conditions: chicken DT40 Tdp1-/-;hTDP1 cells + 20 nM CPT, ATP luminescence, 48 h; activity change, negative = growth inhibition: at 46.2 µM (top of the series) unless noted
Summary of the method: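 Chicken DT40 Tdp1-/- cells stably complemented with human TDP1 were seeded at 400 cells/well in medium containing 20 nM camptothecin, exposed to pin-transferred compounds, and grown at 37 °C for at least 48 hr. Viability was read as ATP luminescence.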
% is set by controls: 0 for no effect and ±100 for the full control effect; potency is the fitted concentration of half-maximal effect; tags give direction and shape of the fitted curve.

| Structure (SMILES) | Potency | activity change, negative = growth inhibition |
| --- | --- | --- |
| Cc1ccc(-n2nc(C)c3c(C)c(CCC(=O)NC(C)c4ccccc4)c(C)nc32)cc1 (stereo not drawn) | inconclusive [inhibitor, partial curve, poor fit] | – |
| Cc1ccc(Cc2nc3ccccc3nc2SCC(=O)N2CCC(C)CC2)cc1 | inconclusive [inhibitor, single point] | – |
| Cc1ccc(NC(=O)Cn2c(=O)n(-c3ccc(C)cc3)c(=O)c3c2cnn3C)cc1 | – | inactive: -11.7% |
| COc1ccc(OC)c(S(=O)(=O)N2CCN3CCCC3C2)c1 (stereo not drawn) | – | inactive: -11.4% |
| COc1cc(/C=C/C(=O)OCC(=O)N2CCN(S(=O)(=O)c3ccc(C)cc3C)CC2)ccc1OC(F)F | inconclusive [inhibitor, single point] | – |
| O=c1c2cc(Br)ccc2[nH]c(=S)n1Cc1ccccc1 | inconclusive [inhibitor, single point] | – |
| O=C(NCCc1ccc(Cl)cc1)C1CCN(Cc2cc3ccccc3n2Cc2ccccc2)CC1 | active: 23.1 µM | – |
| O=C(/C=C/[C@H]1O[C@@H](n2cnc3c(NC(=O)c4ccccc4)ncnc32)[C@H](O)[C@@H]1O)NCCc1ccc(F)cc1 | – | inactive: 13.1% |
| COc1ccc(CNC(=O)[C@H](C)N2C(=O)N3CCc4c([nH]c5ccc(OC)cc45)[C@@]3(C)C2=O)cc1 | inconclusive [inhibitor, single point] | – |
| COc1ccc(CCNC(=O)CCc2cn(Cc3ccccc3Cl)c3ccccc23)c(OC)c1 | inconclusive [inhibitor, single point] | – |
| COC(=O)[C@H](CC(C)C)NC(=O)N1CCC(C)CC1 | – | inactive: 5.79% |
| O=C(COc1ccc(S(=O)(=O)N2CCc3ccccc32)cc1Cl)NCc1ccccn1 | inconclusive [inhibitor, partial curve] | – |
| CCOC(=O)C1(CC2CCCCO2)CCN(S(=O)(=O)c2cc(C)cs2)CC1 (stereo not drawn) | inconclusive [inhibitor, single point] | – |
| Cn1ccsc1=NC(=O)c1ccc([N+](=O)[O-])o1 | active: 18.4 µM | – |
| COc1ccc(C(=O)NCC(=O)OCC(=O)N2CCC(C)CC2)cc1OC | – | inactive: 15% |
| COC(=O)CN1C(=O)[C@H]2[C@@H](/C=C/c3ccccc3)N3C(=O)CN(Cc4ccccc4)C(=O)[C@@]3(C)[C@H]2C1=O | – | inactive: -25.8% |
| CC(Oc1ccccc1F)C(=O)NNC(=O)c1ccc(F)c(S(=O)(=O)N2CCOCC2)c1 (stereo not drawn) | – | inactive: 12.5% |
| COc1ccc([C@H]2C[C@@H](n3cc(-c4ccc(F)cc4)nn3)[C@H](O)CN2C(=O)c2cccs2)cc1 | inconclusive [inhibitor, single point] | – |
| COc1ccc2[nH]c3c(c2c1)CCN1C(=O)C(CC(=O)NCCCn2ccnc2)C[C@H](C(=O)N2CCOCC2)[C@@]31CCC1CCCC1 (stereo partly drawn) | inconclusive [inhibitor, partial curve, poor fit] | – |
| COc1ccc(NC(=O)CC(NC(C)c2ccccc2)C(=O)O)cc1 (stereo not drawn) | – | inactive: 7.18% |
| COc1ccccc1CCNC(=O)c1cccn1-c1nnc(N2CCCC2)s1 | inconclusive [inhibitor, single point] | – |
| CCn1ncc(C2=NOC(C(=O)NCCc3ccccc3)C2)c1C (stereo not drawn) | – | inactive: -2.83% |
| COCC(=O)N1CCC(Oc2ccc(C(=O)N3C[C@@H](C)O[C@@H](C)C3)cc2)CC1 | – | inactive: 2.44% |

| Structure (SMILES) | Potency | activity change, negative = growth inhibition |
| --- | --- | --- |
| COc1cccc(NC(=O)NCc2ccc(F)cc2)c1 | – | inactive: 5.46% |
| Cc1ccc(CNC(=O)CN2C(=O)CSc3ccc(S(=O)(=O)N4CCCCC4)cc32)cc1 | – | inactive: -25.9% |
| Cc1cc(C)n(-c2cc(N3CCN(S(=O)(=O)c4ccc(C)c(C)c4)CC3)ccc2[N+](=O)[O-])n1 | active: 20.6 µM | – |
| COc1ccc(NC(=O)Nc2ccc3c(c2)C(=O)N([C@@H](C)CO)C[C@@H](C)[C@@H](CN(C)CC2CCCCC2)O3)cc1 | inconclusive [inhibitor, single point] | – |
| Cc1sc2ncnc(N3CCC(C(=O)NNC(=O)COc4cccc(C(F)(F)F)c4)CC3)c2c1C | inconclusive [inhibitor, single point] | – |
| Cc1ccc(C)c(S(=O)(=O)Nc2ccc(O)c3ccccc23)c1 | active: 13 µM | – |
| COc1ccccc1CNC(=O)COC(=O)c1ccc([N+](=O)[O-])o1 | – | inactive: -2.17% |
| CCOc1ccc(-c2cc(NC(=O)c3ccccc3)c(C(=O)OC)s2)cc1 | inconclusive [inhibitor, single point] | – |
| O=C(CC(=O)c1ccccc1)c1ccccc1 | inconclusive [inhibitor, single point] | – |
| COc1cccc(C(=O)N(CN2CCCC2=O)c2ccccc2OC)c1 | – | inactive: -19.4% |
| Cc1ccnc(NS(=O)(=O)c2ccc(NC(=O)C3CCCCC3C(=O)O)cc2)n1 (stereo not drawn) | inconclusive [inhibitor, single point] | – |
| COc1ccc(-c2c(C(=O)c3ccccc3)[nH]c(N)c2C(=O)c2ccccc2)cc1OC | inconclusive [inhibitor, single point] | – |
| COc1ccc(S(=O)(=O)Oc2ccc3cccc(N)c3c2)cc1 | inconclusive [inhibitor, single point] | – |
| COc1ccc(CC(N)c2csc(NC(=O)c3ccc(OC)cc3)n2)cc1 (stereo not drawn) | active: 16.4 µM | – |
| COc1ccc(OC)c(NC(=O)NC2CCCCCCC2)c1 | inconclusive [inhibitor, single point] | – |
| O=C(c1cnn(-c2ccccc2)c1)c1cc(Br)ccc1O | – | inactive: -29% |
| O=C(Nc1ccccc1O)C(c1ccccc1)c1ccccc1 | inconclusive [inhibitor, partial curve, poor fit] | – |
| Clc1ccc2nc(-c3ccc(Cl)nc3)[nH]c2c1 | inconclusive [inhibitor, single point] | – |
| COc1ccc(N2CCN(C(=O)CN(c3ccc(Br)cc3)S(C)(=O)=O)CC2)cc1 | inconclusive [inhibitor, full curve] | – |
| CCN(Cc1ccccc1)C(=O)c1oc2ccc(S(=O)(=O)N3CCOCC3)cc2c1C | inconclusive [inhibitor, single point] | – |
| CN(C)/C=C1\N=C(c2cccnc2Oc2ccc(Cl)cc2)OC1=O | inconclusive [inhibitor, single point] | – |
| CCOC(=O)C1=C(N)OC(C)=C(C#N)C1c1ccco1 (stereo not drawn) | inconclusive [inhibitor, single point] | – |
| COc1ccc(C(=O)N2CCN(S(=O)(=O)c3ccc(Cl)cc3)CC2)cc1S(=O)(=O)N1CCOCC1 | – | inactive: 3.29% |

| Structure (SMILES) | Potency | activity change, negative = growth inhibition |
| --- | --- | --- |
| O=C(Nc1ccccc1)[C@@H]1CC=C[C@@H]2CCN(C3CCCCC3)C(=O)[C@@H]21 | inconclusive [inhibitor, single point] | – |
| Cc1ccc([C@H]2C[C@H](O)[C@@H](n3cc(-c4ccc(F)cc4)nn3)CN2CC2CCCCC2)cc1 | – | inactive: -7.9% |
| C=CCOc1ccc(/C=C/C(=O)OCC(=O)N2CCN(S(=O)(=O)c3ccc(C)cc3C)CC2)cc1 | inconclusive [inhibitor, single point] | – |
| O=C(CCNc1cccc(Cl)c1)c1ccco1 | active: 7.31 µM | – |
| CCOC(=O)c1c(C)[nH]c2c1cc(O)c1ccccc12 | inconclusive [inhibitor, single point] | – |
| CCc1ccccc1S(=O)(=O)Cc1ccc(C(=O)NCc2ccc3c(c2)OCO3)o1 | inconclusive [inhibitor, single point] | – |
| CCCN(C(=O)c1cc(S(=O)(=O)N2CCc3ccccc32)cn1C)c1ccc(OCC)cc1 | inconclusive [inhibitor, single point] | – |
| COc1ccccc1-c1nnc2sc(COc3ccc(Cl)cc3)nn12 | inconclusive [inhibitor, single point] | – |
| COc1ccc(CNC(=O)Cn2c(=O)oc3cc(S(=O)(=O)NCc4ccccc4)ccc32)cc1 | inconclusive [inhibitor, partial curve] | – |
| CCCn1cnc2cc(NCc3cccc(OC)c3)ccc21 | – | inactive: -22.7% |
| CCOc1ccc(C2/C(=C(/O)c3ccc(S(=O)(=O)N4CCCCC4)cc3)C(=O)C(=O)N2CCCOC)cc1OC (stereo not drawn) | – | inactive: -5.59% |
| CCOC(=O)N1CCC(N2Cc3cccc(C(=O)Nc4ccc(OC)c(OC)c4)c3C2=O)CC1 | active: 18.4 µM | – |
| Cc1cc(OC(=O)c2ccc(Cl)cc2)cc(=O)n1C | inconclusive [inhibitor, partial curve] | – |
| Cc1ccc(-c2nn(-c3cccc(F)c3)cc2CNCc2cccnc2)o1 | inconclusive [inhibitor, single point] | – |
| N/N=C/C(=N\Nc1ccc(Cl)cc1)C(=O)c1ccncc1 | – | inactive: 8.2% |
| CCOc1ccc(C2C(C(=O)Nc3ccccc3)=C(C)Nc3nc(-c4ccccc4Cl)nn32)cc1OC (stereo not drawn) | inconclusive [inhibitor, single point] | – |
| O=C(Nc1nc(-c2cccnc2)cs1)c1ccc(S(=O)(=O)N2CCOCC2)cc1 | – | inconclusive: -34.5% [inhibitor] |
| Cc1ccccc1NC(=O)C(=O)NCC(c1ccc2c(c1)OCO2)N1CCN(c2ccccc2)CC1 (stereo not drawn) | inconclusive [inhibitor, single point] | – |
| COCC(C)n1c(SCc2ccc(OC)c(F)c2)nc2ccccc2c1=O (stereo not drawn) | active: 5.8 µM | – |
| COc1ccc2ccccc2c1C1CC(=O)N2CN(Cc3ccco3)CSC2=C1C#N (stereo not drawn) | – | inactive: -17.1% |
| COc1ccc(NC(=O)c2cc3c(-c4ccccc4F)nn(C)c3s2)c(OC)c1 | active: 10.3 µM | – |
| CC1CCN(C2=NC(=O)/C(=C/c3ccc(O)cc3)S2)CC1 | inconclusive [inhibitor, single point] | – |

Reference: PubChem BioAssay AID686979 (National Center for Advancing Translational Sciences (NCATS), 2013)
